Screen size: about 370,000 compounds; about 1,100 (0.3%) were called active. Inconclusive results, whose numbers are uncertain, are shown with a selection of clear calls. The call rests on the fitted dose curve; in most records, active means well fitted activation curve with a large enough effect; inconclusive means small, poorly fitted or top-dose-only effect; inactive means flat fitted curve, though single readings scatter. Potencies beside an inconclusive call are fits to weak or partial responses and may not hold up.
target: Relaxin receptor 1 (Homo sapiens) (UniProt Q9HBX9); experiment: qHTS Assay for Agonists of the Relaxin Receptor RXFP1; details: HEK293T-RXFP1 cAMP TR-FRET, 30 min; series mostly up to 57.5 µM; further: nearly all actives have a fitted effect of over 60% in size
Chain of UniProt Q9HBX9 (Q9HBX9 whole entry, looked up): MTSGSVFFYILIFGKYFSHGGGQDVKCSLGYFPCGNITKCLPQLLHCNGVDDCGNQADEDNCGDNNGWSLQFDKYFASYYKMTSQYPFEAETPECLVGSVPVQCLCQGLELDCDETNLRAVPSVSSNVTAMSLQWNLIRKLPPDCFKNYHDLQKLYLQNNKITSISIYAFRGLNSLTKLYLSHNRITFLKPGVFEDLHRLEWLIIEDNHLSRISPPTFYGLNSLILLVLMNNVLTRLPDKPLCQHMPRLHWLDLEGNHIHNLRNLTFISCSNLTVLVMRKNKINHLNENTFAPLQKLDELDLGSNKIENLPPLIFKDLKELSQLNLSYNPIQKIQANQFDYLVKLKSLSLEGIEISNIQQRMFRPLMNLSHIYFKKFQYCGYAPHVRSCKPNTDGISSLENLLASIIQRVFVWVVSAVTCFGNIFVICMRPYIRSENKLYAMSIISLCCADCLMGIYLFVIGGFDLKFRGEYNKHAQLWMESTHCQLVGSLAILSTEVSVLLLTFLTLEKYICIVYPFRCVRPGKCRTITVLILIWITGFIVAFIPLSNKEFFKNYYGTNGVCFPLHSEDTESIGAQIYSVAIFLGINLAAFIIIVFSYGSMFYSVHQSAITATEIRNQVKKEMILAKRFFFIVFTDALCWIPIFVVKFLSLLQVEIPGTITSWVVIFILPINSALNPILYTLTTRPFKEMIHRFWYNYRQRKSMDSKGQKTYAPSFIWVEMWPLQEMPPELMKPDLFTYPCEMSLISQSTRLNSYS
Procedure, shortened: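 cAMP rise read by TR-FRET after 30 min, 37C compound exposure (up to 58 uM) in RXFP1-transfected HEK293 cells with Ro 20174 present. EC50 from Hill-equation fits, with 29 nM porcine relaxin as 100% and buffer as basal.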
Potency means the concentration at half of the fitted maximal effect; tags describe the fitted curve by direction and shape.

Compound | Potency
COc1cc2[nH]c(=S)nc(NCCc3ccc(S(N)(=O)=O)cc3)c2cc1OC | inconclusive: 31.6 µM [activator, single point]
COc1ccccc1Nc1nc2cc(C)ccc2cc1C#N | inconclusive: 6.31 µM [activator, single point]
CCCN1CCc2nc(SCC(=O)Nc3ccc(C)c(Cl)c3)[nH]c(=O)c2C1 | inconclusive: 39.8 µM [activator, single point]
COc1ccccc1NC(=O)c1sc2nc3n(c(=O)c2c1C)CCC3 | active: 8.91 µM
O=C(Nc1ccc2c(c1)C(=O)N(c1ccccc1)C2=O)c1cccs1 | inconclusive: 25.1 µM [activator, single point]
O=C(NCCCN1CCCC1=O)c1c(O)nc2ccccn2c1=O | inconclusive: 28.2 µM [activator, partial curve]
Cc1cccc(C(=O)Nc2nc3ccc(S(C)(=O)=O)cc3s2)c1 | inconclusive: 35.5 µM [activator, single point]
Cc1ccc(C)c(NC(=O)Cn2c(=O)n(Cc3nc(C)no3)c(=O)c3cc4c(cc32)OCO4)c1 | inconclusive: 39.8 µM [activator, single point]
Cn1c(=O)c2c(ncn2CCC(=O)N/N=C/c2ccccc2)n(C)c1=O | inconclusive: 15.8 µM [activator, partial curve]
COC(=O)c1ccc(COc2ncnc3ccccc23)o1 | active: 15.8 µM
COc1ccc(C(CC(=O)O)NC(=O)c2sc3ccccc3c2Cl)cc1 (configuration not stated) | inconclusive: 15.8 µM [activator, partial curve]
CC(C)C(=O)Nc1cccc(C(=O)Nc2ccccc2C(=O)O)c1 | inactive
CCOC(=O)C(C)Sc1nc(=O)n2cc(C)ccc2n1 (configuration not stated) | inconclusive: 28.2 µM [activator, partial curve]
O=C(c1ccc(F)cc1)c1ccc(-c2ccc(F)cc2)nc1 | inconclusive: 39.8 µM [activator, single point]
CNc1ccc(/C=C(\C#N)C(=O)Nc2ccccn2)cc1[N+](=O)[O-] | active: 17.8 µM
COc1ccc2c(c1)C(c1cccs1)=NNC(c1ccncc1)=N2 | inactive
CCc1nnc(SCc2ccc(F)cc2Cl)c2cc3sc(C)cc3n12 | inconclusive: 14.1 µM [activator, partial curve]
COc1cc2cc(Br)cc(Br)c2nc1C | inconclusive: 15.8 µM [activator, partial curve]
Cc1cc2c(=O)c(C(=O)c3ccncc3)cn(CC(=O)Nc3cccc(C)c3C)c2cc1C | inconclusive: 31.6 µM [activator, single point]
Cc1ccc2c(c1)sc(=NC(=O)c1cccs1)n2C | inconclusive: 39.8 µM [activator, single point]
CN(C)CCN1C(=O)C(O)=C(C(=O)c2cc3ccccc3o2)C1c1cccc(Br)c1 (configuration not stated) | inconclusive: 25.1 µM [activator, partial curve]
CCOC(=O)c1cnc2ccc(Br)cc2c1NCC(C)O (configuration not stated) | inconclusive: 39.8 µM [activator, single point]
CCN(CC)CCn1c2ccccc2c2nc3ccc([N+](=O)[O-])cc3cc21 | inconclusive: 7.94 µM [activator, partial curve]

Compound | Potency
O=C(NCCc1nnc2ccc(SCC(=O)N3CCCC3)nn12)c1ccccc1 | inconclusive: 25.1 µM [activator, partial curve]
CCOC(=O)/C(C#N)=C/c1c(N2CCN(C)CC2)nc2c(C)cccn2c1=O | inconclusive: 17.8 µM [activator, partial curve]
COc1ccc(-c2nnc3ccc(SCC(=O)N4CCCCCC4)nn23)cc1OC | inconclusive: 39.8 µM [activator, single point]
CCc1ccc(NC(=O)CSC2=Nc3ccccc3C3=NC(CCC(=O)NCCc4ccccc4)C(=O)N23)cc1 (configuration not stated) | inactive
Cn1c(=O)c(Cc2ccccc2)c(O)c2ccccc21 | inactive
O=C(NC(NNc1ccc([N+](=O)[O-])cc1)(C(F)(F)F)C(F)(F)F)c1ccccc1Cl | inactive
O=C(CSc1ccc2nc(-c3ccccc3)cn2n1)Nc1ccccc1C(F)(F)F | inconclusive: 39.8 µM [activator, single point]
CCOCCCn1c(=S)[nH]c2cc(C(=O)NCc3ccc(F)cc3)ccc2c1=O | inconclusive: 35.5 µM [activator, single point]
Cc1ccc(-n2ncc3c(SCC(=O)Nc4cc(C)on4)ncnc32)c(C)c1 | inconclusive: 31.6 µM [activator, single point]
COc1ccc(S(=O)(=O)N2CCCCCC2)cc1C(=O)Nc1ccccn1 | inconclusive: 25.1 µM [activator, partial curve]
O=C(CS(=O)(=O)c1ccc(F)cc1)Nc1nnc(-c2cccs2)o1 | inactive
O=C(N/N=C/c1cc(Cl)ccc1O)C(=O)Nc1ccccc1OC(F)(F)C(F)F | inactive
Brc1ccc(-c2ccc(CNCCSc3nnnn3-c3ccccc3)o2)cc1 | active: 14.1 µM
Cc1oc(-c2ccc(Cl)cc2)nc1CSc1nnc(C)n2c1cc1sccc12 | inconclusive: 8.91 µM [activator, partial curve]
CCOC(=O)c1ccc(N2C(=O)c3[nH]nc(-c4ccc(OC)cc4)c3C2c2ccc(C)cc2)cc1 (configuration not stated) | inactive
Cc1ccc(NC(=O)Cn2cc(C(F)(F)F)cc(Cl)c2=O)cc1S(=O)(=O)N1CCCCC1 | inactive
COc1ccc(OC)c(C2C(C(=O)c3ccco3)=C(O)C(=O)N2Cc2cccnc2)c1 (configuration not stated) | inconclusive: 28.2 µM [activator, partial curve]
O=C(Cn1c(=O)n(Cc2ccc(F)cc2)c(=O)c2sc3ccccc3c21)NCc1ccccc1Cl | inconclusive: 39.8 µM [activator, single point]
Cc1nn(CCC#N)c2[nH]c(=O)cc(C(F)(F)F)c12 | inactive
COc1ccccc1-c1noc(-c2ccc(NCCc3ccccc3)c([N+](=O)[O-])c2)n1 | inconclusive: 20 µM [activator, partial curve]
O=C(c1ccc(Cl)s1)N1CCc2ccccc21 | inactive
CS(=O)(=O)c1ccc2nc(NC(=O)c3ccc(N4CCCC4=O)cc3)sc2c1 | inconclusive: 6.31 µM [activator, single point]
CCN1CCN(c2nc3c(C)cccn3c(=O)c2/C=C(\C#N)C(=O)NCCCOC)CC1 | inconclusive: 15.8 µM [activator, partial curve]

Compound | Potency
Cc1cc(N)n(-c2ccc(Oc3ccccc3)c(S(=O)(=O)O)c2)n1 | inconclusive: 17.8 µM [activator, partial curve]
CCOc1ccccc1C(=O)Nc1ccc(S(=O)(=O)Nc2cc(OC)nc(OC)n2)cc1 | inconclusive: 15.8 µM [activator, partial curve]
Cc1ccc(-n2ncc3c(NCCc4ccccc4)ncnc32)cc1 | inactive
COc1ccc(-n2nc(C(=O)NCC(=O)Nc3cccc(Cl)c3)c3ccccc3c2=O)cc1OC | inconclusive: 31.6 µM [activator, single point]
Cc1ccc(-n2nnc(-c3nsc(NC(=O)c4ccc(C)c(C)c4)n3)c2C)cc1 | inconclusive: 22.4 µM [activator, partial curve]
Cc1ccc(C(=O)Nc2nc(-c3ccccc3)ns2)cc1 | inconclusive: 35.5 µM [activator, single point]
CC(=O)C1=C(O)C(=O)N(c2ccc(F)cc2)C1c1ccc(C)cc1 (configuration not stated) | inconclusive: 25.1 µM [activator, partial curve]
Cc1cc(C)cc(Nc2nc3c(S(=O)(=O)c4cccc(Cl)c4)nnn3c3ccsc23)c1 | inconclusive: 10 µM [activator, partial curve]
C=CCNC(=O)NC(=O)COC(=O)c1nc2nccc(C)n2n1 | active: 15.8 µM
Cc1ccc(C)c(NC(=O)CCCN2C(=O)C(c3ccccc3)Oc3cccnc32)c1 (configuration not stated) | inconclusive: 39.8 µM [activator, single point]
O=C1C([N+](=O)[O-])=C(O)c2cccc3cccc1c23 | inconclusive: 31.6 µM [activator, single point]
CC(C)CNS(=O)(=O)c1ccc(NC(=O)Cn2nc(-c3ccc(F)cc3)ccc2=O)cc1 | inactive
CN1CCN(CCCNC(=O)c2ccc3c(c2)N(Cc2ccc(F)cc2)CCS3)CC1 | inconclusive: 25.1 µM [activator, partial curve]
NC(=S)NNc1cccc2cccnc12 | inactive
COc1ccc(-c2cc(C(F)(F)F)nc(SCC(=O)NCc3ccc(Cl)cc3)n2)cc1 | inconclusive: 39.8 µM [activator, single point]
CSc1ccc(S(=O)(=O)Nc2ccc3c4c(cccc24)CC3)cc1 | inactive
CCOC(=O)CC(NC(=O)CCc1c(C)nc2ncnn2c1C)c1ccc(OC(C)C)cc1 (configuration not stated) | inconclusive: 25.1 µM [activator, single point]
COC(=O)c1sc(NC(=O)c2c(OC)cccc2OC)c(C#N)c1C | inconclusive: 31.6 µM [activator, single point]
Cc1ccc(NC(=O)CCn2c(=O)[nH]c3ccsc3c2=O)cc1F | inconclusive: 39.8 µM [activator, single point]
COC(=O)Sc1nnc(-c2ccc(Br)cc2)o1 | inconclusive: 28.2 µM [activator, partial curve]
COc1ccc(N2CCN(C(=O)CCc3c(C)nc4cc(-c5ccc(Cl)cc5)nn4c3C)CC2)cc1 | inconclusive: 35.5 µM [activator, single point]
